Measurements reported in the supplement of paper PMC7826260.
This is one part of the list. One pool of 16,384 single-stranded DNAs met each Rep nickase domain in vitro for 1 h at 37 °C with 3 µM enzyme; only the middle of the 90-letter strands is printed. Values are log2 of uncut reads against the no-enzyme pool; more negative means more cut, near 0 not cut, and no call is made. Counts are relative to all reads, so uncut sequences can rise above 0 when many others are cut.

How the values were obtained:
Test in all cases: uncleaved DNA left, log2 of reads against the no-enzyme library (log2 ratio); higher = less cleavage (more negative = more Rep cleavage of the k-mer); sequences stand for … in CTCGTCCG…ACCGGAGA
[1] = tested on: T1, Rep nickase domain of Muscovy duck circovirus
T1 sequence (residues 1-111, tag not shown): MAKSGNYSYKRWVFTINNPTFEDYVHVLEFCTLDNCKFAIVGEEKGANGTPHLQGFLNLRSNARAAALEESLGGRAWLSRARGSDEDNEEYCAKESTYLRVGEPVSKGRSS
Protocol: (§1)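 A pool of 90-nt single-stranded DNAs with seven random bases just before the constant AC of the nick site (name = the seven bases) was cut by 3 µM recombinant His6-SUMO-tagged Rep nickase domain (300 nM DNA, 50 mM HEPES pH 8.0, 50 mM NaCl, 1 mM MnCl2, 1 h, 37 °C, three replicates). Uncut DNA was amplified and sequenced.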

[2] = tested on: T2, Rep nickase domain of banana bunchy top virus
T2 sequence (residues 1-94, tag not shown): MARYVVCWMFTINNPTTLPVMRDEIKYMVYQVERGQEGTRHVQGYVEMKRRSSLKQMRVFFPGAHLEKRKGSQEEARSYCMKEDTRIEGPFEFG
Protocol: as §1

[3] = tested on: T3, Rep nickase domain of cabbage leaf curl virus
T3 sequence (residues 1-116, tag not shown): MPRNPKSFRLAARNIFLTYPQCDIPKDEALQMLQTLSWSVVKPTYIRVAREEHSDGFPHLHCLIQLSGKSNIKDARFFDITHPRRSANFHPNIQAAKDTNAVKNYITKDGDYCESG
Protocol: as §1

[4] = tested on: T4, Rep nickase domain of chickpea chlorotic dwarf virus
T4 sequence (residues 1-124, tag not shown): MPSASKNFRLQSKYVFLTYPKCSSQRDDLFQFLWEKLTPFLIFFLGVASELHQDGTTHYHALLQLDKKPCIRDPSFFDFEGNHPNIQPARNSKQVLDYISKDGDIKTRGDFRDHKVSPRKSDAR
Protocol: as §1

[5] = tested on: T5, Rep nickase domain of faba bean necrotic yellows virus
T5 sequence (residues 1-98, tag not shown): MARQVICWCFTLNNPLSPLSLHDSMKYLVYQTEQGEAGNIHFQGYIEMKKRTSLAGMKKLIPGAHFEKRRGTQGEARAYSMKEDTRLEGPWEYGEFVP
Protocol: as §1

[6] = tested on: T6, Rep nickase domain of maize striate mosaic virus
T6 sequence (residues 1-117, tag not shown): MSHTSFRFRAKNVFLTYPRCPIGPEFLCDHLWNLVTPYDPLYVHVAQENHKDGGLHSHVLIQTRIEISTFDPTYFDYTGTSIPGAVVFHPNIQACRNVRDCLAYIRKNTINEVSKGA
Protocol: as §1

[7] = tested on: T7, Rep nickase domain of porcine circovirus 2
T7 sequence (residues 2-116, tag not shown): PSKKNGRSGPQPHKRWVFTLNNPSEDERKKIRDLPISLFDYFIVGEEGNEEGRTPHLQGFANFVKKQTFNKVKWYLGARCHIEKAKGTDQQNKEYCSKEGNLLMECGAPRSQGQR
Protocol: as §1

[8] = tested on: T8, Rep nickase domain of tomato golden mosaic virus
T8 sequence (residues 1-124, tag not shown): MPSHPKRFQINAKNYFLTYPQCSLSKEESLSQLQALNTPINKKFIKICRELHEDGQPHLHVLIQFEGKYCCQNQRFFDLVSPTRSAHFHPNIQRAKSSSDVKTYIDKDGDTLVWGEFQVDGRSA
Protocol: as §1

[9] = tested on: T9, Rep nickase domain of tomato yellow leaf curl virus
T9 sequence (residues 1-136, tag not shown): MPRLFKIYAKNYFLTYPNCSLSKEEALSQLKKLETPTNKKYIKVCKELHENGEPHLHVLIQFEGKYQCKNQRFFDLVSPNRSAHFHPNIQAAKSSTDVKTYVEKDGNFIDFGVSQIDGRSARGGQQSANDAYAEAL
Protocol: as §1

[10] = tested on: T10, Rep nickase domain of wheat dwarf virus
T10 sequence (residues 1-137, tag not shown): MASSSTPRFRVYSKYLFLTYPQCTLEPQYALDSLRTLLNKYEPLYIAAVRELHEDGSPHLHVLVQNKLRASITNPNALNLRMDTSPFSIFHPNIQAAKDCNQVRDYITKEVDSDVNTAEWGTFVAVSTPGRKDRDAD
Protocol: as §1

| Sequence | uncleaved DNA left (log2) [1] | uncleaved DNA left (log2) [2] | uncleaved DNA left (log2) [3] | uncleaved DNA left (log2) [4] | uncleaved DNA left (log2) [5] | uncleaved DNA left (log2) [6] | uncleaved DNA left (log2) [7] | uncleaved DNA left (log2) [8] | uncleaved DNA left (log2) [9] | uncleaved DNA left (log2) [10] |
| --- | --- | --- | --- | --- | --- | --- | --- | --- | --- | --- |
| AACAGTA | 0.00802 | 0.0335 | -0.24 | -1.77 | 0.0546 | -0.827 | -0.339 | 0.0377 | -0.0195 | -0.0495 |
| GTGTCCC | -0.0758 | 0.026 | 0.232 | 0.759 | -0.0543 | 1.82 | -0.0226 | 0.151 | -0.0117 | -0.0171 |
| GTTAACC | -0.0741 | 0.0737 | 0.189 | 0.665 | -0.0474 | 1.44 | -0.0599 | 0.0153 | 0.0477 | -0.022 |
| ATAAGTA | 0.0655 | 0.0459 | -1.35 | -2.5 | 0.0405 | -0.839 | -0.185 | 0.0203 | -0.0402 | -0.277 |
| ACGTCCG | -0.0886 | -0.0395 | -0.806 | -0.387 | 0.0189 | -1.12 | 0.134 | -0.0435 | -0.0923 | -0.103 |
| CACCGGT | 0.082 | -0.00401 | 0.203 | 0.234 | 0.00141 | 0.317 | 0.161 | 0.0376 | -0.12 | 0.0948 |
| TGGTCTG | 0.0489 | 0.00847 | 0.133 | 0.821 | 0.0819 | 1.24 | 0.0328 | -0.0348 | -0.0279 | 0.0552 |
| AACAGCT | -0.0113 | -0.0617 | -0.413 | -1.36 | -0.0289 | -0.775 | -0.328 | 0.0514 | 0.0179 | 0.058 |
| TCTTGGC | 0.0643 | -0.0838 | -0.277 | -0.618 | -0.0881 | -1.22 | 0.0696 | -0.0766 | -0.112 | -0.171 |
| CGTTAGA | 0.0744 | -0.0203 | -0.121 | -0.176 | -0.0828 | -0.742 | 0.0399 | -0.0529 | 0.0539 | -0.0505 |
| CCCGCTT | -0.165 | -0.0891 | -0.164 | -1.74 | -0.0713 | -0.393 | -0.403 | -0.173 | -0.176 | -0.279 |
| GGCCCTG | 0.106 | 0.122 | 0.135 | 0.897 | 0.0168 | 1.67 | 0.268 | 0.117 | 0.0762 | 0.0638 |
| CGTTGAG | 0.047 | -0.0317 | -0.595 | 0.592 | 0.112 | -0.507 | 0.13 | -0.0761 | 0.109 | -0.179 |
| GCCCTAA | -0.0935 | 0.0708 | 0.155 | 0.45 | -0.0653 | 0.434 | -0.00212 | 0.0379 | 0.0354 | 0.0255 |
| GTGTATA | -0.0684 | 0.0899 | 0.319 | 0.893 | -0.115 | 1.79 | 0.0175 | 0.156 | 0.0615 | -0.0213 |
| TCAGGTA | -0.0188 | -0.116 | 0.246 | 0.929 | -0.078 | 1.29 | -0.0184 | 0.0538 | -0.202 | 0.0653 |
| AACTTTC | -0.118 | -0.0122 | 0.00423 | -0.737 | 0.16 | -0.805 | -1.72 | -0.0345 | -0.0548 | 0.0485 |
| CGTCTAG | 0.0119 | 0.0372 | -0.386 | -0.271 | 0.162 | -0.91 | 0.239 | -0.0786 | -0.0768 | 0.0182 |
| CACCGGG | -0.0848 | -0.0829 | 0.301 | 0.492 | -0.178 | 0.179 | 0.00525 | -0.0815 | -0.0788 | -0.17 |
| AGGGCGC | -0.0646 | 0.0919 | -0.353 | -0.152 | -0.0102 | -0.445 | 0.2 | 0.0867 | -0.00173 | -0.0966 |
| CTGTTGC | 0.0301 | -0.102 | -0.696 | -0.49 | 0.102 | -1.14 | 0.0369 | -0.132 | 0.000416 | -0.088 |
| AACCTAC | 0.174 | 0.0834 | -0.205 | -2.11 | 0.00693 | -0.649 | -0.129 | 0.0359 | 0.0613 | 0.124 |
| AGCTGTG | -0.0215 | 0.0419 | -0.373 | -0.169 | 0.0597 | -0.526 | 0.0859 | -0.00304 | -0.0148 | -0.036 |
| TATAATT | -2.51 | -3.2 | -2.64 | -3.16 | 0.14 | -0.475 | -3.43 | -0.21 | -0.0766 | -0.466 |
| ACTGACC | -0.157 | -0.0108 | -0.0768 | 0.593 | -0.0089 | 0.88 | 0.0928 | 0.013 | -0.133 | -0.0819 |
| GAGAACC | -0.102 | 0.0622 | 0.441 | 0.822 | 0.0275 | 1.21 | -0.109 | -0.0117 | 0.0683 | 0.102 |
| GGGGGTT | -0.0878 | 0.0407 | 0.776 | 1.69 | 0.0619 | 2.16 | 0.0803 | -0.0316 | -0.0497 | 0.0362 |
| CCCAGCA | -0.0554 | 0.098 | -0.335 | -0.883 | -0.0654 | -0.908 | -0.146 | -0.081 | 0.152 | -0.113 |
| GTTATAG | 0.0876 | 0.0865 | 0.0205 | 0.212 | 0.0486 | -0.419 | 0.117 | 0.0921 | 0.0514 | 0.0611 |
| CCGTGGG | 0.0616 | -0.125 | 0.0836 | 0.244 | 0.0253 | 0.0138 | -0.0215 | -0.0274 | -0.0966 | -0.117 |
